PubChem BioAssay AID1645887 (National Center for Advancing Translational Sciences (NCATS), 2021)
Several values for one entry are separate records, joined by “and”; a condition that tells them apart may be missing. Equal values may be shown once. About 40 (0.2%) of roughly 16,000 compounds were called active. Inconclusive results (about 1%) are left out. Calls come from the whole dose curve; as a rule, active = well fitted activation curve with a large enough effect; inconclusive = small, poorly fitted or top-dose-only effect, or another doubt; inactive = no such curve, though single readings can be large or run the other way. The list shows a part of the results.

What follows are compounds tested against Rap guanine nucleotide exchange factor 4 (Homo sapiens) (UniProt Q8WZA2) (assay: Validation qHTS for agonist of cAMP-regulated guanine nucleotide exchange factor 4 (EPAC2)). Conditions: EPAC2 Rap1B BODIPY-GDP exchange, fluorescence; activation: hits give high values.
UniProt Q8WZA2, sequence (Q8WZA2 whole entry, looked up): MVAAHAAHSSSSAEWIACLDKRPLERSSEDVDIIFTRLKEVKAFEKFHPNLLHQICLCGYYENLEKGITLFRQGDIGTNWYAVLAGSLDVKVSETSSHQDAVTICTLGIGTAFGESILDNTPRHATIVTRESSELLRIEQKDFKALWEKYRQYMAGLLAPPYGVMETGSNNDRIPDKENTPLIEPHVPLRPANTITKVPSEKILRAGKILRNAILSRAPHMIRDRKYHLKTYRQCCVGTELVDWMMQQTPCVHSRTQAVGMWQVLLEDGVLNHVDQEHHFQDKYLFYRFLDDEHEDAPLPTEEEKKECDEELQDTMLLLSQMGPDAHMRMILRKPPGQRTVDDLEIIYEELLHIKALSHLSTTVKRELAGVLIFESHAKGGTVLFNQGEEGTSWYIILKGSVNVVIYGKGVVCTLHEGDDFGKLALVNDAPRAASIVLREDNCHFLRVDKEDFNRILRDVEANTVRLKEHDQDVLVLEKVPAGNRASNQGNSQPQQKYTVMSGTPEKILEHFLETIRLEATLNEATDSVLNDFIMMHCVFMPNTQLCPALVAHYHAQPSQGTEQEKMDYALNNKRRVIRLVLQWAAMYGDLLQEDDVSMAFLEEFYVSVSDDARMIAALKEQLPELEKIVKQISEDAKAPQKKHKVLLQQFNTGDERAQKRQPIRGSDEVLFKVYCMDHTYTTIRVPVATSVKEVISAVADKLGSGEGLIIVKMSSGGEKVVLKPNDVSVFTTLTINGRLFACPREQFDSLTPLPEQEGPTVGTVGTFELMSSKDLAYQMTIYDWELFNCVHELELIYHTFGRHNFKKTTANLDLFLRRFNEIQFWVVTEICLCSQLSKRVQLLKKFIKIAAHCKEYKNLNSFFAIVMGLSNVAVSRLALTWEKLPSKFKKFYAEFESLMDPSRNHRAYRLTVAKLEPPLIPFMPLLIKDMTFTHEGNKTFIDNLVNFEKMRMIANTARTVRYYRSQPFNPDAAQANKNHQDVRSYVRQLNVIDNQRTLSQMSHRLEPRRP
Summary of the method: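 Signal normalized against 6.5 mM cAMP as agonist control. Mix of EPAC2 (100 nM), RAP1B-BODIPY-GDP (250 nM) and GDP (50 uM) was read kinetically at 480/540 nm, every 5 min over 30 min, after 5 min room-temperature incubation with compound.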
% is set by controls: 0 for no effect and ±100 for the full control effect.
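Note: exchange makes BODIPY-GDP fluorescence drop when released from Rap1B; series mostly up to about 150 µM.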

activation, inactive:
C=C1C(=O)O[C@@H]2[C@H]3O[C@]3(C)CC/C=C(\C)CC[C@@H]12 2.18%
COc1ccc(-n2c(=O)c(-c3ccc(F)cc3)nc3cnc(N4CCNCC4)nc32)cc1 1.71%
CN(C)c1ncc2nc(-c3ccccc3)c(=O)n(Cc3cccs3)c2n1 -10.2%
Cc1ccc(C(=O)NCCc2nnc3n2CCN(Cc2ccnc4ccccc24)CC3)c(C)c1 -8.07%
O=C(C[C@H]1C(=O)N(c2ccc(F)c(F)c2)C[C@@H]1Cc1ccccc1)Nc1ccccc1 -26.6%
CC1(C)S[C@@H]2[C@H](NC(=O)C(C(=O)Oc3ccc4c(c3)CCC4)c3ccccc3)C(=O)N2[C@H]1C(=O)O (stereo partly specified) -23.3%
COc1ccccc1-c1cc(NCc2cccnc2)ncn1 -4.05%
Cc1cccc(C(=O)O[C@H]2[C@H](Cc3ccccc3)NS(=O)(=O)[C@H]3CC4C=C[C@]23O4)c1 -36%
Cc1cc(C(=O)NNCc2ccccc2)no1 0.6%
Cc1ccccc1-c1cc(Nc2ccccc2)ncn1 -10.4%
COc1ccc2c(c1)CC[C@@H]1[C@@H]2CC[C@]2(C)[C@@H](NCCCCCCN3C(=O)C=CC3=O)CC[C@@H]12 3.17%
CC(C)c1c(C(=O)NCC2(N3CCOCC3)CCCC2)cnn1-c1nccc(-c2cccs2)n1 6.09%
COc1ccc(OC)c(/C=C/c2cc3ccccc3cn2)c1 -9.69%
COC(=O)c1cccc(C(=O)NCc2nc(-c3ccccc3NC(C)=O)oc2C)c1 -1.54%
COc1ccc(-c2ccc(=N)n(CCCC(=O)O)n2)cc1 -13.7% and 9.64%
Cn1ccc(C(=O)NCC2CCC3(CCN(Cc4cc(F)cc(F)c4)CC3)O2)n1 (stereo unspecified) 1.02%
C=C1CC[C@@H]2O[C@@]2(C)CC[C@H]2[C@H]1CC2(C)C -14.1%
CC(C)(S)[C@@H](N)C(=O)O 9.65%
CC1=CC(=O)C2=C(C)C[C@H](OC(=O)Cc3ccccc3)C3[C@H](OC(=O)[C@H]3C)C12 (stereo partly specified) -38.8%
C=CCCCCCCCCCCCC(O)CC(O)COC(C)=O (stereo unspecified) -55.6%
CN(Cc1cccc2ncccc12)C(=O)c1cnn(-c2nccc(-c3ccccc3F)n2)c1C1CC1 -30.8%
COc1ccc(Oc2ncc3nc(-c4ccc(F)cc4)c(=O)n(C[C@H]4CCCO4)c3n2)cc1 4.33%
CC(=O)Oc1c(-c2ccccc2)oc2c(CC=C(C)C)c3c(c(OC(C)=O)c2c1=O)C=CC(C)(C)O3 -6.7%
CC(N)(C(=O)O)c1ccc(P(=O)(O)O)cc1 (stereo unspecified) 2.19%
Cc1cnc(CNc2ccnc(-c3ccccc3CN(C)C)n2)cn1 -13.8%
CCCCCCCCCCC[C@@H](C[C@@H]1OC(=O)[C@H]1CCCCCC)OC(=O)[C@H](CC(C)C)NC=O -26.7%
NCC1CCC(C(=O)O)CC1 (stereo unspecified) -1.96% and 7.53%
COC(=O)[C@@H](Cc1ccccc1)N(Cc1ccccc1)S(=O)(=O)N(Cc1ccccc1)[C@H](Cc1ccccc1)C(=O)OC -11.2%
CC(C)(C)n1nc(-c2ccc(Cl)cc2)c2c(N)ncnc21 5.86%
COc1ccc(-c2nc3cnc(N(C)C)nc3n(C3CC3)c2=O)cc1 5.78%
Oc1cn2c(n1)Nc1ccc(Cl)c(Cl)c1C2 -13.8% and 5.04%
COCCN1CCN(C(=O)c2sc3ncnc(NCC4CCCO4)c3c2C)CC1 (stereo unspecified) 7.05%
Cc1cc(C)n(-c2cccc(C(=O)NCC3Cc4cccc(-c5ccccn5)c4O3)c2)n1 (stereo unspecified) -2.28%
CN(C)C(=O)c1ccc(-c2nc(NCc3cccs3)c3ccccc3n2)cc1 -22.7%
Nc1nc2c(ncn2[C@@H]2O[C@H](COP(=O)(O)OP(=O)(O)O)[C@@H](O)[C@H]2O)c(=O)[nH]1 7.45%
COc1ccc2c(c1OC)OCC(c1ccc(OC)c(OC)c1OC)C2 (stereo unspecified) -15.3%
Cc1ccc2c(c1)CN(CCNC(=O)c1ccc3nc(C)[nH]c3c1)CC(C)O2 (stereo unspecified) 6.81%
O=C(CN1Cc2ccccc2OC(c2ccccc2F)C1)NC(c1ccccn1)C(F)(F)F (stereo unspecified) -18.2%
Cc1ccnc2c(Cl)c(Cl)ccc12 -19.9%
CCCC[C@H]1COCCS(=O)(=O)N1Cc1ccccc1F -18.7%
COc1cc(C/C=C/c2ccccc2)c(OC)cc1O 3.63%
O=C1O[C@H](CO)[C@@H](O)[C@H](O)[C@H]1O -6.86%
COc1ccc2c(c1)-c1nc(-n3ncc(C(=O)NCc4cccc(C)n4)c3C3CC3)ncc1CC2 -4.74%
COc1ccccc1CNc1nc(-c2cccnc2)nc2ccccc12 6.15%
S=C(Nc1ccccc1)Nc1nccs1 -47.5%
Cc1c(C(=O)NCc2ccc3c(c2)OCO3)cnn1-c1ncc2c(n1)-c1ccccc1CC2 11.6%
CC(C)(C)OC(=O)N(Cc1ccco1)S(=O)(=O)c1ccccc1Br -2.2%
N=C(N)N -9.31%
CCOC(=O)C[C@H]1c2ccccc2S(=O)(=O)N1Cc1cccc(C(F)(F)F)c1 -20%
C=CC(C)(O)CC/C=C(\C)CCC=C(C)C (stereo unspecified) -40.3%
CCN(CC)CCOC(=O)C1(c2ccccc2)CCCC1 -10.9%
CC(NC(=O)c1ccco1)c1nnc2n1CCN(Cc1ccc(N(C)C)cc1)CC2 (stereo unspecified) -4.07%
O=P(O)(O)C(Sc1ccc(Cl)cc1)P(=O)(O)O -0.0579%
O=C1N=C(O)CN1/N=C\c1ccc(-c2ccc([N+](=O)[O-])cc2)o1 -2.1%
N#CCCn1c(=O)cnc2cnc(Oc3ccccc3)nc21 -12.4%
C=CCCN(Cc1ccccc1)S(=O)(=O)c1cc(Br)ccc1Br -21.9%
